The labels stand for the following.
B1: TPR 5TU (parent)
chain: GGAUCUUCUCGAUCUAACAAAAAAGACAAAUCUGCCACAAAGCUUGAGAGCAUCUUCGGAUGCAGAGGCGGCAGCCUUCGGUGGCGCGAUAGCGCCAACGUUCUCAACUAUGACACGCAAAACGCGUGCUCCGUUGAAUGGAGUUUAUCAUG

Variants at the floor of the assay are shown more often than the library holds them.

The values below come from the RNAGym collection of RNA variant scans (doi:10.1073/pnas.2313332121).

In this data set the parent is B1. The experiment in a line: polymerase ribozyme fitness, log enrichment relative to wild type (log ratio); higher = more active; in vitro selection for triplet polymerase activity. The essentials:
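Both subunits of a heterodimeric triplet polymerase ribozyme were given their own mutant library, built by PCR and transcribed. Each library was annealed with a biotinylated primer, the partner subunit and triplets, incubated frozen at −7 °C, and its extended constructs gel-excised, captured on streptavidin beads and amplified by RT-PCR, all in one round done in triplicate. Fitness is the logarithm of genotype enrichment relative to wild-type enrichment, with replicates averaged by inverse-variance weighting. That logarithm is base 2, and Illumina-sequenced genotypes needed ≥10 input reads and ≥1 read per output.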
For A41C G68A G81U A97G A106G U109C U134G G140A, the “polymerase ribozyme fitness (log ratio)” value is ≤ -4.2.
The figure for G42C G46A G68C C95A A106U C108G is ≤ -4.2.
On to A41C G59C U82C G86C C108G G141U, for which the “polymerase ribozyme fitness (log ratio)” value is ≤ -4.2.
A41C C149A: the “polymerase ribozyme fitness (log ratio)” value was -4.19.
With C43A C63U C96A U127G, the “polymerase ribozyme fitness (log ratio)” value was ≤ -4.2.
For C43G C69A, the “polymerase ribozyme fitness (log ratio)” value was ≤ -4.2.
Regarding G42C C79U G88A A142C, the “polymerase ribozyme fitness (log ratio)” value was ≤ -4.2.
The figure for A41C G46A A91G C93A C116G is ≤ -4.2.
The figure for A41U A52C A98U is -2.65; for G42U A73G U78G C93A U146A it is ≤ -4.2.
For the variant G42A G50C C93G A138G, the “polymerase ribozyme fitness (log ratio)” value was ≤ -4.2.
In the case of A41U C103G A113G C125A, the “polymerase ribozyme fitness (log ratio)” value is ≤ -4.2.
Then G42U C95U C99U U104G, with ≤ -4.2; and A41C C87G C118G G141U U148G, with ≤ -4.2.
The figure for C43U C75A C79U G86U C87U G117U A150C is ≤ -4.2.
The figure for G42C U44A G70C C96U G126U G141A is ≤ -4.2.
Consider G42C A60G C76A C96U, for which the “polymerase ribozyme fitness (log ratio)” value was ≤ -4.2.
Regarding C43A A52C C75U U90G C95U C96G C114G U144G, the “polymerase ribozyme fitness (log ratio)” value was ≤ -4.2.
For the variant A41U U82A C95G A138C, the “polymerase ribozyme fitness (log ratio)” value is ≤ -4.2.
Take C43U C93U C108U A122U G143A: the “polymerase ribozyme fitness (log ratio)” value is ≤ -4.2.
In the case of A41C G58A G68A U104C A113C A147C, the “polymerase ribozyme fitness (log ratio)” value is ≤ -4.2.
Regarding A41U U61C C79A A110C G143C, the “polymerase ribozyme fitness (log ratio)” value was ≤ -4.2.
The figure for A41C U55G C114U G117U C149A is ≤ -4.2; for G42C C99A it is ≤ -4.2; for G42C C99U it is ≤ -4.2.
The figure for C43U C87G A137G is ≤ -4.2; for C43G U55A A89U A115U U139C G140U A150C it is ≤ -4.2.
Regarding A41C U148C, the “polymerase ribozyme fitness (log ratio)” value was -3.07.
The figure for A41C U148G is ≤ -4.2; for G42C U45A U53G U78A G86C C87A C95U A98G it is ≤ -4.2.
The figure for A41C G42C C54U G59C G62C G124C U148C is ≤ -4.2; for A41U G50A G71C G124C it is ≤ -4.2.
The figure for G42C C79G G124C is ≤ -4.2; for A41C G50C U55A C85G it is ≤ -4.2; for G42A C54G U82C G94U it is ≤ -4.2.
Turning to G42A G81C C85U C99G, the “polymerase ribozyme fitness (log ratio)” value was ≤ -4.2.
Take A41G C57G C76U G94A A110G C116G U139G: the “polymerase ribozyme fitness (log ratio)” value was -4.11.
C43U G67U G71C U148C A150U: the “polymerase ribozyme fitness (log ratio)” value is ≤ -4.2.
With C43U G86U G94C C103A C108G C123A U127A, the “polymerase ribozyme fitness (log ratio)” value is ≤ -4.2.
For the variant A41C C43A G86A A91C C96A, the “polymerase ribozyme fitness (log ratio)” value is ≤ -4.2.
For the variant G42C C57A U77G G88C A142U, the “polymerase ribozyme fitness (log ratio)” value was ≤ -4.2.
Consider G42U A47G C99G C116U, for which the “polymerase ribozyme fitness (log ratio)” value was ≤ -4.2.
The figure for G42C U56G U61A is ≤ -4.2; for G42U G70C C79G C85U C103A G112A G141C it is ≤ -4.2; for A41C U56A U82A A150G it is -1.45.
The figure for A41U C85U A91U A107U is ≤ -4.2; for A41C C43U G71U U78G C93U it is ≤ -4.2.
The figure for C43U G58A U90C C132A G143U is ≤ -4.2.
With A41U C75G, the “polymerase ribozyme fitness (log ratio)” value was ≤ -4.2.
In the case of A41C G46U C76A U102A C131G, the “polymerase ribozyme fitness (log ratio)” value was ≤ -4.2.
Then C43U G67C G86A, with ≤ -4.2; and G42U G50C C99U U127G, with ≤ -4.2.
The figure for G42U A60G C72U C93U is ≤ -4.2; for G42A A89G C93U C125U G141U it is ≤ -4.2; for G42A A73U A150U it is ≤ -4.2.
Then A41G C85A A106U, with ≤ -4.2.
With A41C G112C C114G, the “polymerase ribozyme fitness (log ratio)” value was ≤ -4.2.
With A41G C72U C76A C87U A98U C99G A110G, the “polymerase ribozyme fitness (log ratio)” value is ≤ -4.2.
As for C43A U44A G92U A98C G140C C149G, the “polymerase ribozyme fitness (log ratio)” value was ≤ -4.2.
Then G42U C54U G74U C96A U130G, with ≤ -4.2; and C43U G65U G71U C118G A137U U151C, with ≤ -4.2.
Then C43A C75U A106U C108U C123G G141A, with ≤ -4.2.
For A41G G65A G143U, the “polymerase ribozyme fitness (log ratio)” value is -3.42.
A41C G58A: the “polymerase ribozyme fitness (log ratio)” value was 0.163.
Then G42C G117A, with ≤ -4.2.
As for A41U U82A A142C, the “polymerase ribozyme fitness (log ratio)” value was -2.88.
C43G U44G C87G C116G: the “polymerase ribozyme fitness (log ratio)” value is ≤ -4.2.
The figure for A41C C93G C99A G133C A150G is ≤ -4.2.
Take A41C C85U C99G C132G U139A: the “polymerase ribozyme fitness (log ratio)” value is ≤ -4.2.
The figure for C43G A52G A64U A91U A122C is ≤ -4.2.
The figure for G42A G59A is -4.11; for A41U G50C C76U C93G A138G A150U it is ≤ -4.2.
The figure for G42A G86A A89C C123U U134C A147G is ≤ -4.2.
With A41U G46A G70C C87G U148C G152A, the “polymerase ribozyme fitness (log ratio)” value is ≤ -4.2.
For the variant G42A G59U C87G U90G G141U, the “polymerase ribozyme fitness (log ratio)” value was ≤ -4.2.
As to G42U C85U C125A G128A A142U, the “polymerase ribozyme fitness (log ratio)” value was ≤ -4.2.
For the variant G42A U44G U56A G81C C85A G117U, the “polymerase ribozyme fitness (log ratio)” value was ≤ -4.2.
The figure for G42A C57U A66G C87U C105U is ≤ -4.2.
As for A41C C54U A110G, the “polymerase ribozyme fitness (log ratio)” value is -2.74.
The figure for C43G G83A G88A C149A is ≤ -4.2; for A41C C75U C95U C96A U104C C105U it is ≤ -4.2; for A41C C63U C76G C93A U127A it is ≤ -4.2.
G42C C57U G81A: the “polymerase ribozyme fitness (log ratio)” value is ≤ -4.2.
